Here are results for 94 sequences from PMC5836133.

The other results are listed elsewhere or left out. At the low end of the ranking the order means little.

The assay deals with T1, GST-NbGlk1(82-244).
T1 sequence: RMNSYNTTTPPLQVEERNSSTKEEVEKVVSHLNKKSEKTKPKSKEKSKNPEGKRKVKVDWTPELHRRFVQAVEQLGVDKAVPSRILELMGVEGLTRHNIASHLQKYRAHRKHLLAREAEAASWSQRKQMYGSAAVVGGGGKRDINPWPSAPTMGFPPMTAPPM
The experiment in a line: protein-binding microarray.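 Note: rank-based score ranging −0.5 to +0.5 with E above 0.45 taken as significant binding.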 The settings on record: NbGlk1 is a Golden2-like transcription factor of Nicotiana benthamiana; high values mean tight binding; most listed sequences are background and not binding sites; double strand, one strand shown.
The sequence AATTACTA returned a binding signal of 0.153 E-score.
The value for ATGTCTGG was -0.186 E-score; that for AACAACAT was 0.0487 E-score; that for AGATCATA was 0.127 E-score.
In the case of ATTTAAGA it was 0.236 E-score; in that of CAACACGG, -0.0848 E-score.
In the case of CACGATCC it was 0.194 E-score; in that of ATCGCGAT, 0.424 E-score.
The sequence AGTACGAG gave a binding signal of 0.0135 E-score.
The value for ACACAGCT was -0.119 E-score.
The value for CAGATGAG was -0.151 E-score; that for AGGAAACA was -0.00589 E-score; that for ACATCAGC was -0.0142 E-score.
The sequence AAAAAATC yielded a binding signal of 0.439 E-score.
In the case of ACTGGAGG it was -0.105 E-score; in that of ATAAAAGG, -0.13 E-score.
The value for AAAGGATC was 0.182 E-score; that for AGATCCGG was 0.291 E-score; that for AAACAAGT was 0.0342 E-score.
In the case of AGCTGCTA it was -0.298 E-score; in that of ACACGAAG, -0.0851 E-score; in that of ACCCTGTC, -0.287 E-score.
In turn, ACCAGGCA returned a binding signal of -0.305 E-score.
The value for ACTGTTTA was -0.0696 E-score; that for CAAAAGTC was -0.123 E-score; that for ATCGCAGG was 0.0895 E-score.
In the case of AACTTATG it was -0.0125 E-score.
In the case of AAACGCTT it was -0.0618 E-score.
In turn, CACGTGGA gave a binding signal of 0.0123 E-score.
In the case of AGCCACAG it was -0.195 E-score.
The value for AGGACCAC was -0.235 E-score; that for AACGGGGA was -0.0842 E-score.
The value for ACCAGGAC was -0.204 E-score.
ACTCGGTC displayed a binding signal of -0.191 E-score.
The value for ACCCGGTG was -0.181 E-score; that for ACAAAGAC was -0.00264 E-score; that for AACTTTTC was 0.0426 E-score.
The value for ACAACAGG was -0.0462 E-score.
In the case of ACGACACA it was -0.176 E-score; in that of ATTTACCC, 0.0626 E-score.
In turn, ACTCCCCT came in with a binding signal of -0.183 E-score.
In the case of AAAGTATT it was 0.0387 E-score.
The value for ACAAAACG was -0.0521 E-score; that for AGCTGTAT was -0.00942 E-score.
In the case of ATCGCCGG it was 0.102 E-score; in that of ACGAAGGA, -0.0776 E-score.
In turn, ACTAGCGC showed a binding signal of -0.222 E-score.
The sequence ACTATTTG had a binding signal of 0.113 E-score.
The value for ATCTGACA was 0.23 E-score; that for ATTCCCCG was 0.32 E-score.
The value for AGTTCCTA was -0.0468 E-score; that for AAGACATA was -0.0176 E-score.
In the case of AAATACCT it was 0.116 E-score; in that of ACATCTTG, -0.0609 E-score; in that of ACACGTAG, 0.0256 E-score.
Take ACTGCTGG: the binding signal is -0.112 E-score.
In the case of CACCTAGG it was -0.103 E-score; in that of ATAGTCAT, -0.146 E-score; in that of AGTCCTTA, -0.168 E-score.
The value for ACTCATAC was -0.0267 E-score; that for ATGCTTCA was -0.16 E-score; that for AGAAAAGG was -0.0175 E-score.
Consider AACGGAAG, for which the binding signal was -0.166 E-score.
In the case of ACGTCTAA it was 0.0547 E-score; in that of AACTACAC, -0.0552 E-score.
The value for CACCTGGG was -0.31 E-score; that for AATGAGCC was -0.221 E-score; that for CACGAGTA was -0.00253 E-score.
The value for ACTATACT was -0.0777 E-score; that for ATGCAAAC was -0.0886 E-score.
On to AAGATTCC, for which the binding signal is 0.46 E-score.
In the case of ACAACAGA it was -0.00974 E-score; in that of ATAGTACC, -0.25 E-score.
In the case of AAGCGATC it was 0.294 E-score; in that of ATCAAAAT, 0.268 E-score; in that of ATGTCACC, -0.127 E-score.
The value for AGCAATTG was 0.0761 E-score; that for AGCATGTG was -0.0902 E-score; that for ACGAAGGG was -0.223 E-score.
Sequence AAATGGAC returned a binding signal of -0.136 E-score.
In the case of AATCGCCT it was 0.225 E-score.
As to ACATTGCT, the binding signal is -0.0139 E-score.
The value for ATGCCCTC was -0.302 E-score; that for ACAATCCC was 0.276 E-score; that for CAGCCATC was -0.315 E-score.
The value for AGAACAAC was -0.0788 E-score.
In the case of AACTTAGC it was 0.035 E-score; in that of ACTTGCTC, -0.089 E-score.
In turn, ATGAGAAA registered a binding signal of 0.109 E-score.
The value for CAATGGTA was -0.0913 E-score.
As for ACAATATG, the binding signal was 0.083 E-score.
Consider AATAGGCA, for which the binding signal was -0.194 E-score.
AGCGATCA gave a binding signal of 0.185 E-score.
The value for ATGCGTGG was -0.31 E-score.
